These results are taken from PubChem BioAssay AID1963576 (National Center for Advancing Translational Sciences (NCATS), 2024).

SMILES strings stand for the structures. Screen size: about 46,000 compounds; about 60 (0.1%) were called active. Another 3% or so got no clear call; they are omitted. Calls follow the shape of the dose curve; as a rule, active = well fitted inhibition curve with a large enough effect; inconclusive = small, poorly fitted or top-dose-only effect; inactive = no such curve, though single readings can be large or run the other way. The list shows a part of the results.

A short description of this experiment: Primary qHTS assay for Inhibitors of ovarian cancer metastasis using an organotypic tumor microenvironment (TME) model. Also: nearly all actives have a fitted effect of over 65% in size.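 As to activity change, negative = inhibition: plate controls were DMSO wells for no effect and tomatine positive control wells for full effect.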 The note with it: SKOV3ip1-GFP adhesion/invasion on 3D omental model, fluorescence; series mostly up to 45.8 µM; activity change, negative = inhibition: at the top concentration. The method in brief:
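Adhesion/invasion was scored as fixed GFP-labeled SKOV3ip1 cell counts (488/509 nm), normalized to DMSO and tomatine controls. Cancer cells in serum-free medium, with four compound doses (0.36-46 umol/L), sat 2 hr at RT then 16 hr at 37 C on a 48 hr fibroblast/mesothelial/ECM culture.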
For orientation: Quantitative high-throughput screening tests each substance at several concentrations.
In the case of `COc1cc(C2Nc3ccccc3-c3cc(C)nn32)ccc1O` (stereo not drawn), the “activity change, negative = inhibition” value was inactive: -9.65%. Take `COc1cccc(CNC(=O)c2cc3c(-c4ccccc4F)nn(C)c3s2)c1`: the “activity change, negative = inhibition” value is inactive: 0.589%.

`CCOC(=O)c1cccc(NC(=O)CCSCCc2ccccn2)c1`: the “activity change, negative = inhibition” value was inactive: -2.12%. The same measure, in the same setting: for `Cc1noc(-c2ccc(-c3noc(-c4ccc(F)cc4)n3)cc2)n1` the value was inactive: -0.0465%; for `CCN(CC)CCOc1ccc(Nc2ncc3cc(-c4c(Cl)cccc4Cl)c(=O)n(C)c3n2)cc1`, inactive: -24.8%. With `COCCn1c(SCC(=O)Nc2cc(Cl)ccc2OC)nc2c([nH]c3ccccc32)c1=O`, the outcome was inactive. In the case of `O=S(=O)(c1ccc(Br)s1)N1CCN(c2cccc(C(F)(F)F)c2)CC1`, the “activity change, negative = inhibition” value was inactive: -1.58%.

As for `O=C(NCCc1ccc(Cl)cc1)c1c2c(nc3ccccc13)C(=O)N(C1CCCCC1)C2`, the “activity change, negative = inhibition” value was inactive: -1.06%. The same measure, in the same setting: for `CC1CCN(CC2CCN(C(=O)NCc3ccccc3)CC2)CC1` the value was inactive: -10.3%. On the same count and under the same terms, for `CCCCCCn1nnc2sc(-c3ccccc3)cc2c1=O` the value was inactive: -8.92%.

As to `CCOc1ccc(-c2nc(Cn3c(=O)cc(C)c4c(C)nn(-c5ccccc5)c43)c(C)o2)cc1`, the outcome was inactive.

As for `CCC1CN(C(=O)Nc2ccccc2F)c2cc(C)ccc2O1` (stereo not drawn), the call was inactive.

As for `Cc1ccccc1C(=O)Nc1cc(C)c(O)c(-c2nc3ccccc3o2)c1`, the “activity change, negative = inhibition” value is inactive: 9.46%.

In the case of `CC1(C)O[C@H]2C[C@@H]3[C@H]4CCC5=CC(=O)C=C[C@]5(C)[C@@]4(F)[C@@H](O)C[C@]3(C)[C@]2(C(=O)CO)O1`, the “activity change, negative = inhibition” value is inactive: 23.4%. Take `COc1ccc(CNC(=O)CCNS(=O)(=O)c2ccc3c(c2)oc(=O)n3C)cc1`: the “activity change, negative = inhibition” value is inactive: -15.7%. Regarding `CCn1cc(C(=O)N(C)Cc2ccccc2)c(=O)c2cc(S(=O)(=O)N3CCc4ccccc4C3)ccc21`, the “activity change, negative = inhibition” value was inactive: 0.395%. Take `CCN1c2ccccc2-c2nc(SCC(=O)Nc3cccc(C)c3C)ncc2S1(=O)=O`: the result was inactive. Regarding `COc1ccc(C2CC(=O)c3cc(-c4nc(-c5cccc([N+](=O)[O-])c5)cs4)c(=O)n(-c4ccccc4)c3C2)cc1` (stereo not drawn), the “activity change, negative = inhibition” value was inactive: -7.26%. For `COc1cc(C)ccc1OCCSc1nc2ccc(NC(=O)c3ccco3)cc2s1`, the “activity change, negative = inhibition” value was inactive: 3.82%. Same read-out and setting: for `Cc1nn(C)c(C)c1S(=O)(=O)N(CC(=O)NCCc1ccccc1)c1ccc(C(C)C)cc1` the value was inactive: 2.58%.

Take `O=C(NCCc1ccccc1)c1ccc2c(c1)N(Cc1ccc(Cl)cc1)C(=O)CS2`: the result was inactive. Take `CC(=NNC(=S)N1CCC1)c1ccccn1`: the “activity change, negative = inhibition” value was inactive: -4.39%. On the same count and under the same terms, for `COc1cccc(C(=O)NCC2OCCc3ccccc32)c1` (stereo not drawn) the value was inactive: 10.8%. In the case of `CCc1ccc(NC(=O)CSc2ccnc(=O)[nH]2)cc1`, the outcome was inactive. For `COc1ccc(NC(=O)c2ccco2)cc1NC(=O)COc1ccc(C)c(C)c1`, the “activity change, negative = inhibition” value was inactive: -6.94%. As for `Cc1cccc(N2C(=O)CC(c3ccc(F)cc3)C3=C2COC3=O)c1` (stereo not drawn), the “activity change, negative = inhibition” value was inactive: -4.53%. As for `CCCNC(=O)[C@H]1O[C@H]1C(=O)N[C@H](C(=O)N1CCC[C@@H]1C(=O)OC)C(C)CC` (stereo partly drawn), the “activity change, negative = inhibition” value was inactive: -12%. Turning to `Cc1cc2c(cc1S(=O)(=O)NCc1ccc(F)cc1)n(C)c(=O)c(=O)n2C`, the “activity change, negative = inhibition” value is inactive: -3.38%. Consider `O=C(CSCc1ccc(F)cc1)N1CCN(c2ccccc2F)CC1`, for which the “activity change, negative = inhibition” value was inactive: 1.69%. As for `CCCCNC(=O)c1nn(C)c2c1CSc1ccccc1-2`, the “activity change, negative = inhibition” value is inactive: -5.06%.

For `Cc1ccc(C(=O)c2cn(Cc3cccc(Cl)c3)c3nc(C)ccc3c2=O)cc1`, the compound was classed as inactive. Regarding `CCOC(=O)c1cc(-c2ccccc2)n(-c2cccc(C(=O)Nc3cccc(SC)c3)c2)c1C`, the compound was classed as inactive. In the case of `Cc1cn2c(=O)cc(COC(=O)c3ccc(NC(=O)COc4ccccc4C)cc3)nc2s1`, the “activity change, negative = inhibition” value is inactive: -4.5%.

`Cc1ccc(-c2nn3c(-c4ccccc4C)nnc3c3ccccc23)cc1`: the “activity change, negative = inhibition” value was inactive: -20.4%. Consider `COc1ccc(CCC(=O)NCCc2csc(-c3ccc(F)cc3)n2)cc1`, for which the compound was classed as inactive. For `CN1C(=O)C(Cc2c[nH]c3ccccc23)NC1=S` (stereo not drawn), the “activity change, negative = inhibition” value is inactive: -14.4%. `COc1cc(NC(=O)CC2C(=O)N(c3ccccc3)C(=O)N2Cc2ccc(F)cc2)cc(OC)c1` (stereo not drawn): the outcome was inactive. On to `O=C(Cn1ncc2c([nH]c3ccccc32)c1=O)NCCCN1CCN(c2ccc(F)cc2)CC1`, for which the “activity change, negative = inhibition” value is inactive: 3.23%.

For the compound `CCc1ccccc1NC(=O)N1CCOc2ccccc21`, the “activity change, negative = inhibition” value was inactive: 3.25%. Regarding `COc1ccc(OC)c(NC(=O)CSc2nc(=O)n(CCN(C)C)c3c2CCC3)c1`, the “activity change, negative = inhibition” value is inactive: -7.3%. On to `CC1CCc2c(sc(NC(=O)Cc3ccccc3)c2C(=O)Nc2ccc(Cl)cc2)C1` (stereo not drawn), for which the result was inactive. As for `CCCn1c2ccccc2c2cnn(CC(=O)Nc3cc(C)c(Cl)cc3OC)c(=O)c21`, the call was inactive. As for `CCc1ccc(-n2c(=O)c3c4c(sc3n(Cc3ccccc3C#N)c2=O)CCCC4)cc1`, the “activity change, negative = inhibition” value was inactive: 2.11%.

With `COc1ccc(NC(=O)CN2C(=O)CCn3nc(-c4cccn4C)cc32)cc1`, the result was inactive. For the compound `COC(=O)c1ccc(Cl)cc1NC(=O)N1CC2CCCN2c2ccccc21` (stereo not drawn), the outcome was inactive. `COc1ccc(S(=O)(=O)NCc2ccc3c(c2)CCN3C(=O)c2ccccc2)cc1OC`: the “activity change, negative = inhibition” value was inactive: -9.16%. On to `Cc1cc(Nc2ccccc2F)n2nc(-c3ccccc3)nc2n1`, for which the compound was called inactive. For `CCOc1ccc(Nc2oc(-c3ccc(COc4ccc(OC)cc4)o3)nc2C#N)cc1`, the “activity change, negative = inhibition” value is inactive: -16.2%.
